# Results are given in words; binding and its absence hold for the method and conditions named. Binding seen in cells or lysates may run through a third protein.
# T1: Halo-ySet2 (yeast) (UniProt P46995)
# T1 sequence: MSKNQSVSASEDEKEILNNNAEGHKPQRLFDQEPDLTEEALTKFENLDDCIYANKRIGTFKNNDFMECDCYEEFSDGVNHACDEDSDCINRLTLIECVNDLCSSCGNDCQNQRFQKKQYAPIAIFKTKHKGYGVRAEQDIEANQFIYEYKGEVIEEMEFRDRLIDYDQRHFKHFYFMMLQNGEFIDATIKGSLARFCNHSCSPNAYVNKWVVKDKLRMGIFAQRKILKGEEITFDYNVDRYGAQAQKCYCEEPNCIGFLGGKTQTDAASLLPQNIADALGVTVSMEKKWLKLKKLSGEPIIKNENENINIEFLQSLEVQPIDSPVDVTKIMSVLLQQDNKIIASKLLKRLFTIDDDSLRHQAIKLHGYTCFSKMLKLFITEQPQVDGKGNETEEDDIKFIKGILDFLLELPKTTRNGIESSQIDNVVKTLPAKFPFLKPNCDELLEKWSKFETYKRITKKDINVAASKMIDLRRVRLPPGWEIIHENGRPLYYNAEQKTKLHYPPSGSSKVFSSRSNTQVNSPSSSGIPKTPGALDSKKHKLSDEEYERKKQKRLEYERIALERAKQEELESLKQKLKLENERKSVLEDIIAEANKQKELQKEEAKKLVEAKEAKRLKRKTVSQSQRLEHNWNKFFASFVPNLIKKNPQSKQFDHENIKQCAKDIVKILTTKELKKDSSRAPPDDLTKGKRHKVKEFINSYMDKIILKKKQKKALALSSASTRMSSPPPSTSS
# T2: Halo-SETD2CΔ2114–2263 (human) (UniProt Q9BYW2)
# T2 sequence: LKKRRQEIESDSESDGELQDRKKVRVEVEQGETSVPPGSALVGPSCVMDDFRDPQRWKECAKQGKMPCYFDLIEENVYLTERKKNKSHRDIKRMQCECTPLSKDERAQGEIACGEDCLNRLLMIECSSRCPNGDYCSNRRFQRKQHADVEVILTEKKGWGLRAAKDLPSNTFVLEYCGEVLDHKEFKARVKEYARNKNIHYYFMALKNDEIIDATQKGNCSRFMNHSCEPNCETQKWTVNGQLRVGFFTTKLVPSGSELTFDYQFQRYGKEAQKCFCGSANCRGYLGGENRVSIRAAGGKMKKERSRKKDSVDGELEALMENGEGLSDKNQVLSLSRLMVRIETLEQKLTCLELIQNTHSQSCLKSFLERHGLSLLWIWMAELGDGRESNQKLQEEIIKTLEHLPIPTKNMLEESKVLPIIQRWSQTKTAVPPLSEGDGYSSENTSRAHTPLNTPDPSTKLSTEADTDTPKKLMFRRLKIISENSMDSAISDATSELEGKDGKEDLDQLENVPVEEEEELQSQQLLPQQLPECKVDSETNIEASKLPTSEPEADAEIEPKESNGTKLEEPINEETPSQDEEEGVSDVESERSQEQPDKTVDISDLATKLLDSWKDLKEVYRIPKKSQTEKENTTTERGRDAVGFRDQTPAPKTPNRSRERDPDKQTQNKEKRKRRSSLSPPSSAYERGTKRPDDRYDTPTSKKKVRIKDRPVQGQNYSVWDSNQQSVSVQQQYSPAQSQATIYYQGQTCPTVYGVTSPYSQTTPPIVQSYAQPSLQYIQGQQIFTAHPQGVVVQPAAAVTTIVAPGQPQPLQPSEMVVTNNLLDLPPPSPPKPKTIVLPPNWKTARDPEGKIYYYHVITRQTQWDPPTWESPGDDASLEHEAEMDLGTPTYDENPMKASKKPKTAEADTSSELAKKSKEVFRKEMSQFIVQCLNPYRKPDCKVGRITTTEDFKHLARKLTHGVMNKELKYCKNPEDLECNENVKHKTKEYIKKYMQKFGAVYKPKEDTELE
# B1: hnRNP L (endogenous) (protein, UniProt P14866 1-589)
# chain: MSRRLLPRAEKRRRRLEQRQQPDEQRRRSGAMVKMAAAGGGGGGGRYYGGGSEGGRAPKRLKTDNAGDQHGGGGGGGGGAGAAGGGGGGENYDDPHKTPASPVVHIRGLIDGVVEADLVEALQEFGPISYVVVMPKKRQALVEFEDVLGACNAVNYAADNQIYIAGHPAFVNYSTSQKISRPGDSDDSRSVNSVLLFTILNPIYSITTDVLYTICNPCGPVQRIVIFRKNGVQAMVEFDSVQSAQRAKASLNGADIYSGCCTLKIEYAKPTRLNVFKNDQDTWDYTNPNLSGQGDPGSNPNKRQRQPPLLGDHPAEYGGPHGGYHSHYHDEGYGPPPPHYEGRRMGPPVGGHRRGPSRYGPQYGHPPPPPPPPEYGPHADSPVLMVYGLDQSKMNCDRVFNVFCLYGNVEKVKFMKSKPGAAMVEMADGYAVDRAITHLNNNFMFGQKLNVCVSKQPAIMPGQSYGLEDGSCSYKDFSESRNNRFSTPEQAAKNRIQHPSNVLHFFNAPLEVTEENFFEICDELGVKRPSSVKVFSGKSERSSSGLLEWESKSDALETLGFLNHYQMKNPNGPYPYTLKLCFSTAQHAS
# Experiments:
# [1] = target: T1, Halo-ySet2 (yeast); test: co-IP; Halo affinity purification of a Halo-tagged bait expressed in 293T (Magne HaloTag beads, AcTEV elution); endogenous partner detected by western blot; lysate with or without RNase where stated
# [2] = target: T2, Halo-SETD2CΔ2114–2263 (human); test: as above
binder,measurement,setting,value
B1,binding,[1],no binding
same,binding,[2],no binding

# From publication PMC7933334, “The methyltransferase SETD2 couples transcription and splicing by engaging mRNA processing factors through its SHI domain” (Nature Communications, 2021)
